Source: PMC6305376
These are yes or no findings as the source states them, for the method shown. Binding seen in cells or lysates may run through a third protein. Some binding calls cover weakened binding; strength is not graded here. For some assays here: Tags and fused reporters may be left off the sequences shown. Blank lines part the entries; values can stand above or below the molecule they belong to.

By UniProt entry, the sequences of proteins in these tests, tags left out. Where a name states a change or a piece, a line headed by the entry shows the natural chain unless it says otherwise. Chains listed by the source or under a name are the forms on record and can include a tag or linker. Residues count along the entry.
UniProt Q61768: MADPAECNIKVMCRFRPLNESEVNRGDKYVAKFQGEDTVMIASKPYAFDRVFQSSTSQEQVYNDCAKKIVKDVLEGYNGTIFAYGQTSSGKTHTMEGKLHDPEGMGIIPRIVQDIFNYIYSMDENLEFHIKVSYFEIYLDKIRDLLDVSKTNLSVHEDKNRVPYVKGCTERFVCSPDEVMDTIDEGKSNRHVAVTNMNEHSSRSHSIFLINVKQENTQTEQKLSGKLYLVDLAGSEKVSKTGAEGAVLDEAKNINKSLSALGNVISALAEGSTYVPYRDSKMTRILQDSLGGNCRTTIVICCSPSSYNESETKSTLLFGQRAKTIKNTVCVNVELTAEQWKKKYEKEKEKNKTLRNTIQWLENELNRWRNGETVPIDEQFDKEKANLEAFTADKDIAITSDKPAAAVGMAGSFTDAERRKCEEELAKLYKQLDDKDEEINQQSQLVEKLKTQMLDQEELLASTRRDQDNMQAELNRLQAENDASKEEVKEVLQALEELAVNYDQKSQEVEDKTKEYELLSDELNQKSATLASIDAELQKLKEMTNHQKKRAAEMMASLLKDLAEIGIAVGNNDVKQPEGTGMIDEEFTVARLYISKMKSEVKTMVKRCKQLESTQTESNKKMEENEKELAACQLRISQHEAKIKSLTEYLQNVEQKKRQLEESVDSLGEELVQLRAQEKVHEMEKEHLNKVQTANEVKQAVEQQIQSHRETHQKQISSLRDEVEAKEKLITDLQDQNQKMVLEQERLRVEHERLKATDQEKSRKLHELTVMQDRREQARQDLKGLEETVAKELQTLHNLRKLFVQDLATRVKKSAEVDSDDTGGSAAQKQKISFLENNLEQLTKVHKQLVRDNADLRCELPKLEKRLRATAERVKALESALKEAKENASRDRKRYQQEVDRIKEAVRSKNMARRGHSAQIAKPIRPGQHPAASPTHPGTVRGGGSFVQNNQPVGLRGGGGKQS
GST-fused Kif5b tail (Kif5b^891–963): residues 891-963 of Q61768
UniProt P22892: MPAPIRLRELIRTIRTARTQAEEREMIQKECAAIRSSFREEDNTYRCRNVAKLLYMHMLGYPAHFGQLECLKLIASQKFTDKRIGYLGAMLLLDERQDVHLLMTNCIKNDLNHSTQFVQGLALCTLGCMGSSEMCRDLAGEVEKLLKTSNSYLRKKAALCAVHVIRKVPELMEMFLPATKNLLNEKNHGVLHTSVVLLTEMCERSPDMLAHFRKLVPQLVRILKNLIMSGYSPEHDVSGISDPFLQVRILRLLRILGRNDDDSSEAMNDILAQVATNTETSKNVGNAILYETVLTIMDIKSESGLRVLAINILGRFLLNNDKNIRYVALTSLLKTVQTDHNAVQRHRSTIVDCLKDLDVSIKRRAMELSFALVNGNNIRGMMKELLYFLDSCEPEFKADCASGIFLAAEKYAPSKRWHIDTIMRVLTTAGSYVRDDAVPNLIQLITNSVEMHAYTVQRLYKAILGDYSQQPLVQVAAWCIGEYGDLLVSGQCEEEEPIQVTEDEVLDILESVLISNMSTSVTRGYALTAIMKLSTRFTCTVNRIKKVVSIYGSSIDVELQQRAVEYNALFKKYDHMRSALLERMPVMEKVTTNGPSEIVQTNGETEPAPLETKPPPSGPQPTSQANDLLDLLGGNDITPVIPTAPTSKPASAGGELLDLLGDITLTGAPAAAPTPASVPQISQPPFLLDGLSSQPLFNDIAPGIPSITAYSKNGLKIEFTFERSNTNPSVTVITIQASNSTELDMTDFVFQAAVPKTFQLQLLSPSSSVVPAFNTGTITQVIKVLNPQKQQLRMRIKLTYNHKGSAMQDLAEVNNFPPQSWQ

Key:
[1] = target: Kif5b (kinesin-1 heavy chain), endogenous in mouse cortex (mouse (endogenous in mouse cortex)) (UniProt Q61768); test: co-IP; Kif5b immunoprecipitated from mouse cortical extracts under 150 mM and 500 mM salt; lysis buffer 50 mM Tris pH 7.4, 150 mM NaCl, 2 mM EDTA, 1% Triton X-100; protein G-Agarose; immunoblot
[2] = target: clathrin heavy chain (CHC), endogenous in Neuro2a cells (mouse (endogenous in Neuro2a)) (UniProt Q68FD5); test: co-IP; competition in cells: Neuro2a cells pre-treated 1 h with 100 µM TAT-Kif5b^891-915 peptide at 37 °C, then co-immunoprecipitation of CHC with Kif5b; only the binder purified
[3] = target: GST-fused Kif5b tail (Kif5b^891–963) (UniProt Q61768); test: pull-down; GST-fused Kif5b^891-963 immobilized on glutathione-Sepharose beads, incubated with bacterial extracts containing flag-tagged CHC fragments in lysis buffer (50 mM Tris pH 7.4, 150 mM NaCl, 2 mM EDTA, 1% Triton X-100); only the target purified

Molecule: γ-Adaptin (subunit of AP-1), endogenous in mouse cortex (from UniProt P22892 1-822)
- binding [1]: binds

Molecule: GRKKRRQRRRPPQDRKRYQQEVDRIKEAVRSKNMARRG [TAT-Kif5b^891–915 peptide (cell-penetrating)]
- binding [2]: binds

B2: syntaxin-6, endogenous in mouse cortex (protein, UniProt Q9JKK1 1-255)
chain: MSMEDPFFVVKGEVQKAVNTAQGLFQRWTELLQGPSAATREEIDWTTNELRNNLRSIEWDLEDLDETISIVEANPRKFNLDATELSIRKAFITSTRQIVRDMKDQMSASSVQALAERKNRQALLGDSSSQSWNAGVADRYGRLDRELQLANSHFIEEQQAQQQLIVEQQDEQLELVSGSIGVLKNMSQRIGGELEEQAVMLDDFSHELESTQSRLDNVMKKLAKVSHMTSDRRQWCAIAILFAVLVVVLILFLVL
- binding [1]: no binding

Results, then the molecule that gave them:

- binding [3]: binds
B1: Flag-tagged CHC^1280–1429 (N-terminus of the CHC proximal segment) (domain or fragment, UniProt Q68FD5 1280-1429)
chain: ADELEELINYYQDRGYFEELITMLEAALGLERAHMGMFTELAILYSKFKPQKMREHLELFWSRVNIPKVLRAAEQAHLWAELVFLYDKYEEYDNAIITMMNHPTDAWKEGQFKDIITKVANVELYYKAIQFYLEFKPLLLNDLLMVLSPR

- binding [1]: no binding
B3: dynamin I, endogenous in mouse cortex (protein, UniProt P39053 1-867)
chain: MGNRGMEDLIPLVNRLQDAFSAIGQNADLDLPQIAVVGGQSAGKSSVLENFVGRDFLPRGSGIVTRRPLVLQLVNSTTEYAEFLHCKGKKFTDFEEVRLEIEAETDRVTGTNKGISPVPINLRVYSPHVLNLTLVDLPGMTKVPVGDQPPDIEFQIRDMLMQFVTKENCLILAVSPANSDLANSDALKIAKEVDPQGQRTIGVITKLDLMDEGTDARDVLENKLLPLRRGYIGVVNRSQKDIDGKKDITAALAAERKFFLSHPSYRHLADRMGTPYLQKVLNQQLTNHIRDTLPGLRNKLQSQLLSIEKEVDEYKNFRPDDPARKTKALLQMVQQFAVDFEKRIEGSGDQIDTYELSGGARINRIFHERFPFELVKMEFDEKELRREISYAIKNIHGIRTGLFTPDMAFETIVKKQVKKIREPCLKCVDMVISELISTVRQCTKKLQQYPRLREEMERIVTTHIREREGRTKEQVMLLIDIELAYMNTNHEDFIGFANAQQRSNQMNKKKTSGNQDEILVIRKGWLTINNIGIMKGGSKEYWFVLTAENLSWYKDDEEKEKKYMLSVDNLKLRDVEKGFMSSKHIFALFNTEQRNVYKDYRQLELACETQEEVDSWKASFLRAGVYPERVGDKEKASETEENGSDSFMHSMDPQLERQVETIRNLVDSYMAIVNKTVRDLMPKTIMHLMINNTKEFIFSELLANLYSCGDQNTLMEESAEQAQRRDEMLRMYHALKEALSIIGDINTTTVSTPMPPPVDDSWLQVQSVPAGRRSPTSSPTPQRRAPAVPPARPGSRGPAPGPPPAGSALGGAPPVPSRPGASPDPFGPPPQVPSRPNRAPPGVPSLGAWRLNSPQGKHENRAGKARL
